In the supplement of paper PMC8047034 one finds log2 surviving fraction data, which are given here for 26 compounds.

Structures are written as SMILES. Counter-ions that a name gives are not always drawn. This is one part of the list. Most values come without repeats; read them as rough.

The assay has as its system Ov4Carbo. Put plainly: log2 surviving fraction (library drug vs vehicle, or drug + carboplatin vs carboplatin alone; relative to plate median); ovarian cancer lines: OVCAR4 is platinum-sensitive and Ov4Carbo platinum-resistant; higher = more cell survival. Particulars: library drug concentration 10 µM; 7 days; carboplatin co-treatment 5 µM.
Regarding `CCCC(=O)OCOC(=O)C1=C(C)NC(C)=C(C(=O)OC)C1c1cccc(Cl)c1Cl` (stereo unspecified) [Cleviprex (Clevidipine)], the log2 surviving fraction worked out at 0.886.

Turning to `C=CCN1CC[C@]23c4c5ccc(O)c4O[C@H]2C(=O)CC[C@@]3(O)[C@H]1C5` [Naloxone HCl], the log2 surviving fraction worked out at 1.53.

Regarding `CC(C)(Oc1ccc(Cl)cc1)C(=O)O` [Clofibric acid], the log2 surviving fraction is 0.194.

On to `CCCCCCCCCC(=O)N[C@H]1[C@H](Oc2c3cc4cc2Oc2ccc(cc2Cl)[C@@H](O[C@@H]2O[C@H](CO)[C@@H](O)[C@H](O)[C@H]2NC(C)=O)[C@@H]2NC(=O)[C@H](NC(=O)[C@@H]4NC(=O)[C@H]4NC(=O)[C@@H](Cc5ccc(c(Cl)c5)O3)NC(=O)[C@H](N)c3ccc(O)c(c3)Oc3cc(O)cc4c3)c3ccc(O)c(c3)-c3c(OC4O[C@H](CO)[C@@H](O)[C@H](O)[C@@H]4O)cc(O)cc3[C@@H](C(=O)O)NC2=O)O[C@H](CO)[C@@H](O)[C@@H]1O` (stereo partly specified) [Teicoplanin], for which the log2 surviving fraction was 1.38.

With `Cc1cc(N)c2ccccc2[n+]1CCCCCCCCCC[n+]1c(C)cc(N)c2ccccc21` [Dequalinium chloride], the log2 surviving fraction is -7.11.

With `C/C(=C(\CCOP(=O)(O)O)SC(=O)c1ccccc1)N(C=O)Cc1cnc(C)nc1N` [Benfotiamine], the log2 surviving fraction was determined as 0.456.

Take `OC(Cn1cncn1)(Cn1cncn1)c1ccc(F)cc1F` [Fluconazole]: the log2 surviving fraction was -0.555.

As to `CNCC[C@@H](Oc1ccccc1C)c1ccccc1` [Atomoxetine HCl], the log2 surviving fraction was -1.56.

As for `Oc1c(Cl)cc(Cl)c2cccnc12` [Chloroxine], the log2 surviving fraction is -4.17.

For the compound `COCCOC(=O)C1=C(C)NC(C)=C(C(=O)OC/C=C/c2ccccc2)C1c1cccc([N+](=O)[O-])c1` (stereo unspecified) [Cilnidipine], the log2 surviving fraction is -2.51.

In the case of `CC(C)c1nc(N(C)S(C)(=O)=O)nc(-c2ccc(F)cc2)c1/C=C/[C@@H](O)C[C@@H](O)CC(=O)O` [Rosuvastatin calcium (Crestor)], the log2 surviving fraction was -0.481.

In the case of `C[N+]1(C)[C@@H]2C[C@@H](OC(=O)[C@H](CO)c3ccccc3)C[C@H]1[C@@H]1O[C@@H]12` [Methscopolamine (Pamine)], the log2 surviving fraction is -0.248.

For `CCC1=C(C)CN(C(=O)NCCc2ccc(S(=O)(=O)NC(=O)N[C@H]3CC[C@H](C)CC3)cc2)C1=O` [Glimepiride], the log2 surviving fraction came out at 0.412.

For `CCOC(=O)CCC(=O)O[C@H]1[C@H](O[C@@H]2[C@@H](C)[C@H](O[C@H]3C[C@@](C)(OC)[C@@H](O)[C@H](C)O3)[C@@H](C)C(=O)O[C@H](CC)[C@@](C)(O)[C@H](O)[C@@H](C)C(=O)[C@H](C)C[C@@]2(C)O)O[C@H](C)C[C@@H]1N(C)C` [Erythromycin Ethylsuccinate], the log2 surviving fraction came out at 0.544.

As to `CC[C@H]1OC(=O)[C@H](C)[C@@H](O[C@H]2C[C@@](C)(OC)[C@@H](O)[C@H](C)O2)[C@H](C)[C@@H](O[C@@H]2O[C@H](C)C[C@H](N(C)C)[C@H]2O)[C@](C)(O)C[C@@H](C)CN(C)[C@H](C)[C@@H](O)[C@]1(C)O` [Azithromycin Dihydrate], the log2 surviving fraction is -0.0735.

Regarding `CNC(=O)Oc1ccc2c(c1)[C@]1(C)CCN(C)[C@@H]1N2C` [Physostigmine Salicylate], the log2 surviving fraction turned out to be 0.668.

Take `C[N+](C)(C)CCO.[Cl-]` [Choline Chloride]: the log2 surviving fraction was -0.367.

In the case of `CN1[C@@H]2CC[C@H]1C[C@@H](OC(=O)c1c[nH]c3ccccc13)C2` [Tropisetron], the log2 surviving fraction was -0.532.

`NCCC(O)(P(=O)(O)O)P(=O)(O)O` [Pamidronate Disodium]: the log2 surviving fraction was -0.0745.

Regarding `CC(C)CN(C[C@@H](O)[C@H](Cc1ccccc1)NC(=O)O[C@H]1CCOC1)S(=O)(=O)c1ccc(N)cc1` [Amprenavir (Agenerase)], the log2 surviving fraction was found to be 0.348.

In the case of `CN1C2CCCC1CC(NC(=O)c1nn(C)c3ccccc13)C2` (stereo unspecified) [Granisetron HCl], the log2 surviving fraction is -0.376.

`CC1(C)[C@H](C(=O)O)N2C(=O)C[C@H]2S1(=O)=O` [Sulbactam]: the log2 surviving fraction was -9.86.

With `CNC[C@H](O)c1ccc(O)c(O)c1` [Epinephrine bitartrate (Adrenalinium)], the log2 surviving fraction is -0.0807.

As to `Cc1c(-c2ccc(O)cc2)n(Cc2ccc(OCCN3CCCCCC3)cc2)c2ccc(O)cc12` [Bazedoxifene HCl], the log2 surviving fraction is -6.71.

Turning to `O=C(C1CCCCC1)N1CC(=O)N2CCc3ccccc3C2C1` (stereo unspecified) [Praziquantel (Biltricide)], the log2 surviving fraction worked out at 0.23.

Turning to `CCCc1nc2c(C)cc(-c3nc4ccccc4n3C)cc2n1Cc1ccc(-c2ccccc2C(=O)O)cc1` [Telmisartan (Micardis)], the log2 surviving fraction is 0.0503.
